# Experimental data reported in the supplement of paper PMC9446081.
# About 220 (0.56%) of roughly 39,000 compounds showed activity. Some of the results follow.
# Test system: Escherichia coli K-12 BW25113
# Experiment: relative growth (OD600 normalised to plate interquartile mean) (fraction); higher = less growth inhibition, active = 0.2 or less
# Conditions: 50 µM; LB; incubation time: overnight (16-24 h)
# 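Further: static incubation at 37 °C against the wild-type strain, values averaged over two biological replicates.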
row,SMILES,relative growth
1,Cc1noc(C)c1NC(=O)Nc1ccc2c(c1)C(=O)N([C@H](C)CO)C[C@@H](C)[C@@H](CN(C)Cc1ccc(C(F)(F)F)cc1)OCCCC[C@@H](C)O2,inactive: 1.02
2,Cc1ccc(S(=O)(=O)Nc2ccc3c(c2)CC(=O)N([C@H](C)CO)C[C@@H](C)[C@@H](CN(C)C(=O)Nc2cccc4ccccc24)O3)cc1,inactive: 0.988
3,Cc1noc(C)c1S(=O)(=O)N(C)C[C@H]1Oc2ccc(NC(=O)NC3CCCCC3)cc2CC(=O)N([C@@H](C)CO)C[C@@H]1C,inactive: 0.994
4,CO[C@@H]1CN(C)C(=O)c2ccc(NS(=O)(=O)c3ccccc3)cc2OC[C@@H](C)N(C(=O)NC(C)C)C[C@H]1C,inactive: 1
5,COc1ccc(-c2cnc3c(c2)C(=O)N([C@H](C)CO)C[C@H](C)[C@@H](CN(C)S(=O)(=O)c2ccc(OC)cc2)O3)cc1,inactive: 1
6,C[C@H](CO)N1C[C@H](C)[C@@H](CN(C)C(=O)Nc2ccc(-c3ccccc3)cc2)OCc2ccccc2-c2ccccc2C1=O,inactive: 1.01
7,C[C@@H]1CCCCO[C@@H](CN(C)C(=O)C2CCCCC2)[C@H](C)CN([C@H](C)CO)C(=O)c2cc(NC(=O)c3ccncc3)ccc2O1,inactive: 1.01
8,Cc1noc(C)c1S(=O)(=O)N(C)C[C@@H]1OCCCC[C@@H](C)Oc2ccc(NS(=O)(=O)c3cn(C)cn3)cc2C(=O)N([C@@H](C)CO)C[C@H]1C,inactive: 0.99
9,NC1=NCCCC1,inactive: 0.991
10,C[C@@H]1CCCCO[C@H](CN(C)CC2CCCCC2)[C@@H](C)CN([C@H](C)CO)C(=O)c2cc(NC(=O)Nc3ccc(F)cc3)ccc2O1,inactive: 1.01
11,C=C(C(=O)O[C@H]1CC=C(C)C[C@H](O)[C@H]2[C@H](C)C(=O)O[C@@H]2/C=C/1C)[C@@H]1CCC(=C)[C@@H]2C[C@H](O[C@@H]3O[C@H](CO)[C@@H](O)[C@H](O)[C@H]3O)C(=C)[C@@H]2C1,inactive: 0.957
12,C[C@H]1CN([C@@H](C)CO)C(=O)c2cccc(NC(=O)Nc3cccc4ccccc34)c2O[C@H]1CN(C)Cc1ccc(-c2ccccc2)cc1,inactive: 1.03
13,Cc1ccc(OC(=O)N(C)C[C@@H]2OCc3ccccc3-c3ccccc3C(=O)N([C@H](C)CO)C[C@@H]2C)cc1,inactive: 1.06
14,COc1ccc(S(=O)(=O)N(C)C[C@@H]2OCCCC[C@H](C)Oc3ccc(NS(=O)(=O)c4ccc(Cl)cc4)cc3C(=O)N([C@H](C)CO)C[C@H]2C)cc1,inactive: 1.05
15,C[C@H]1CN([C@@H](C)CO)C(=O)c2cccc(NC(=O)c3ccc(-c4nccs4)cc3)c2O[C@H]1CN(C)C(=O)Nc1cccc2ccccc12,inactive: 1.01
16,C[C@H](CO)N1C[C@H](C)[C@H](CN(C)S(C)(=O)=O)Oc2ccc(NC(=O)NC3CCCCC3)cc2CC1=O,inactive: 0.992
17,Cc1noc(C)c1NC(=O)Nc1ccc2c(c1)C(=O)N([C@H](C)CO)C[C@@H](C)[C@@H](CN(C)S(=O)(=O)c1cn(C)cn1)O2,inactive: 1.03
18,Cc1noc(C)c1NC(=O)Nc1ccc2c(c1)C(=O)N([C@H](C)CO)C[C@H](C)[C@H](CN(C)C(=O)Nc1cccc3ccccc13)OCCCC[C@@H](C)O2,inactive: 0.999
19,C[C@H](CO)N1C[C@H](C)[C@H](CN(C)S(=O)(=O)c2ccccc2F)Oc2cc(C#Cc3ccccc3)ccc2S1(=O)=O,inactive: 1.04

row,SMILES,relative growth
1,Cc1cccc(/C=C(\CCC(=O)O)c2nc3ccccc3s2)c1,inactive: 0.995
2,Cc1noc(C)c1S(=O)(=O)Nc1ccc2c(c1)C(=O)N([C@@H](C)CO)C[C@@H](C)[C@@H](CN(C)S(C)(=O)=O)OCCCC[C@@H](C)O2,inactive: 1.01
3,CCNC1CC(N)C(OC2OC(CN)=CCC2N)C(O)C1OC1OCC(C)(O)C(NC)C1O.O=S(=O)(O)O.O=S(=O)(O)O (stereo not drawn),inactive: 1.11
4,C=C1CC2C3C=C(C)C4=CC(=O)CCC4(C)C3CCC2(C)C1(OC(C)=O)C(C)=O (stereo not drawn),inactive: 1.06
5,COCC(=O)N1C[C@]2(CCN(CC2)C(=O)CN2CCOCC2)c2c([nH]c3cc(ccc23)OC)[C@H]1CO,inactive: 1
6,Cn1ccc(C(=O)N2CCC3(CCOC[C@@H]3NS(C)(=O)=O)CC2)n1,inactive: 1.01
7,C[C@@H]1CN([C@@H](C)CO)C(=O)Cc2cc(NS(C)(=O)=O)ccc2O[C@H]1CN(C)C(=O)Nc1ccccc1,inactive: 0.988
8,CC(C)N(CCCNC(=O)Nc1ccc(C(C)(C)C)cc1)C[C@H]1O[C@@H](n2cnc3c(N)ncnc32)[C@@H](O)[C@H]1O,inactive: 0.961
9,CC(C)NC(=O)Nc1cccc2c1O[C@@H](CN(C)Cc1ccc(C(=O)O)cc1)[C@H](C)CN([C@H](C)CO)C2=O,inactive: 0.994
10,CN(C)CC(=O)N[C@@H]1CC[C@H](CCNS(=O)(=O)c2ccccc2)O[C@H]1CO,inactive: 1.01
11,CC(=O)O[C@H]1CCS(=O)(=O)C1,inactive: 1
12,C[C@@H]1CN([C@H](C)CO)C(=O)c2cccc(NC(=O)c3cnccn3)c2O[C@@H]1CN(C)S(=O)(=O)c1cn(C)cn1,inactive: 0.989
13,C[C@@H]1CCCCO[C@@H](CN(C)C(=O)Nc2ccccc2)[C@H](C)CN([C@H](C)CO)C(=O)c2cc(NS(=O)(=O)c3ccccc3)ccc2O1,inactive: 1.04
14,CCCN(C)C[C@H]1OCCCC[C@@H](C)Oc2ccc(NC(=O)C3CCCCC3)cc2C(=O)N([C@@H](C)CO)C[C@H]1C,inactive: 1.03
15,C[C@@H]1CN([C@@H](C)CO)C(=O)Cc2cc(NC(=O)Nc3ccc(F)cc3)ccc2O[C@H]1CN(C)Cc1ccc(Cl)c(Cl)c1,inactive: 1.03
16,NC1=NC(=O)C[C@H](Cc2ccccc2)N1,inactive: 1.01
17,C[C@H](CO)N1C[C@H](C)[C@H](CN(C)S(=O)(=O)c2ccccc2)Oc2ccc(NC(=O)C3CC3)cc2CC1=O,inactive: 1
18,COc1ccc(S(=O)(=O)N(C)C[C@@H]2Oc3ncc(C#CC4(O)CCCC4)cc3C(=O)N([C@H](C)CO)C[C@@H]2C)cc1,inactive: 1
19,CC(C)NC(=O)N(C)C[C@@H]1Oc2ncc(-c3ccc(C(=O)N(C)C)cc3)cc2C(=O)N([C@H](C)CO)C[C@H]1C,inactive: 0.983
